Source: PMC4336329 (PLoS ONE, 2015)
Screen size: about 310,000 compounds; about 2,200 (0.71%) showed an effect of 50% or more. The effect is printed as a negative number. The list shows a part of the results.

biological target: human ether-à-go-go-related gene (hERG) potassium channel (human, UniProt Q12809); assay: primary screen, population patch clamp on CHO cells stably expressing hERG
Sequence (Q12809 whole entry, looked up): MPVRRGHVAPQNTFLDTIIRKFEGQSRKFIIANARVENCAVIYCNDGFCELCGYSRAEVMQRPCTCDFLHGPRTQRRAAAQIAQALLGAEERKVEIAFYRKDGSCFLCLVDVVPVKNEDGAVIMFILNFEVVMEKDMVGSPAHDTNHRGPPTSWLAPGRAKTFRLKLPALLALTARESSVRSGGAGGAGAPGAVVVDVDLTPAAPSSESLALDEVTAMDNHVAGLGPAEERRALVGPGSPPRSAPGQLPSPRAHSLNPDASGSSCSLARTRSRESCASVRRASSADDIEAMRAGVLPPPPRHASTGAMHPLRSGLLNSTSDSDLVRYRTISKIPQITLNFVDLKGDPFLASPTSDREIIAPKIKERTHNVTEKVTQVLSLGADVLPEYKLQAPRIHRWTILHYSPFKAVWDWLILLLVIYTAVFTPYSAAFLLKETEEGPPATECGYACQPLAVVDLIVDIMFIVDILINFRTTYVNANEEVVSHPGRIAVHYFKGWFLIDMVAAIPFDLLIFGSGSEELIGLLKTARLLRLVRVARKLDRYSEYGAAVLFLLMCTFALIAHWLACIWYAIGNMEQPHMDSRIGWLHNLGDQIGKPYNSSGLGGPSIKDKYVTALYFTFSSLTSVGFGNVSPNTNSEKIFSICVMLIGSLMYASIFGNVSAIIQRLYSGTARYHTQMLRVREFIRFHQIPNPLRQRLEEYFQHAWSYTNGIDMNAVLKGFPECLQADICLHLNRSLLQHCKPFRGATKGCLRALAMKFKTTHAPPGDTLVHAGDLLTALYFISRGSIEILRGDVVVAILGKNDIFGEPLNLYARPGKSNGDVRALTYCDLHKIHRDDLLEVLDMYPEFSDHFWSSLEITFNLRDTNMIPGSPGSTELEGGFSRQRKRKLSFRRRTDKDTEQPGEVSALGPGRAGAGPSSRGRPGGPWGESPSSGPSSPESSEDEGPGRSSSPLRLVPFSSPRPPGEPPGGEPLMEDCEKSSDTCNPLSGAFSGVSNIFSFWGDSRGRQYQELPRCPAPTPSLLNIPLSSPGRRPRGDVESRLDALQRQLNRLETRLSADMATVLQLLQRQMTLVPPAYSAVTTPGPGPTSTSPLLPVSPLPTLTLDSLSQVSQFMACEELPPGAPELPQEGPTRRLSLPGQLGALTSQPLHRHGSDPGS

SMILES	hERG current change (%, negative = inhibition) at 1uM [%]
CCN(CC)S(=O)(=O)c1ccc2c(c1)N(CC(=O)NCc1ccco1)C(=O)CO2	13.5
CCOC(=O)CC(NC(=O)c1ccco1)c1ccc(OC)cc1 (centres unmarked)	13.5
Clc1ccccc1CONc1ncnc2nonc12	7.67
CC(C)(C)OC(=O)N1CCC(C(=O)O)CC1	8.68
COc1ccccc1CCC(=O)OCC(=O)Nc1c(Br)cc(C)cc1Br	11.4
CC(C)CCOc1ccc(C(=O)NN2C(=O)NC3(CCCCC3)C2=O)cc1	2.74
CN(C)C(=O)NC(Nc1ccc(Cl)cc1Cl)C(Cl)(Cl)Cl (centres unmarked)	4.33
CCOC(=O)N1CCN(C(=O)C(NC(=O)c2ccc(CC)cc2)C(C)C)CC1 (centres unmarked)	-4.46
O=C(Nc1ccccc1C(=O)NCc1cccnc1)c1ccccc1Cl	9.12
CCOC(=O)c1c(-c2ccccc2)csc1NC(=O)CSc1nnnn1C	-5.16
CCCc1nc(SCC(=O)Nc2ccccc2)c2c(=O)n(C)c(=O)n(C)c2n1	11.6
COc1ccc(C2C3=C(Nc4ncnn42)c2ccccc2CCC3)cc1 (centres unmarked)	1.1
CC(=O)NCCOc1cccc(OCCNC(C)=O)c1	5.84
Cn1c(/C(C#N)=C/c2ccncc2)nc2ccccc21	-7.88
O=C(Nc1ccccc1)Nc1cc(S(=O)(=O)N2CCOCC2)ccc1N1CCCC1	9.98
COC(=O)c1cccc(NC(=O)C(C)(C)C)c1	16.3
CC1(C)Cc2ccccc2-c2n[nH]c(=S)n21	10.2
COC(=O)[C@H](CC(C)C)NC(=O)N1CCN(c2cccc(C(F)(F)F)c2)CC1	7.59
OC(CN1CCN(c2ccccn2)CC1)Cn1c2ccc(Cl)cc2c2cc(Cl)ccc21 (centres unmarked)	-0.825
O=C(OC1CCN(c2ncc(C(F)(F)F)cc2Cl)CC1)c1ccc(Cl)cc1	9.85

SMILES	hERG current change (%, negative = inhibition) at 1uM [%]
COC(=O)c1cc(OC)c(OC)cc1NC(=O)CCc1ccc(C)o1	15.2
COC(=O)c1cc(S(=O)(=O)NCC2CCN(Cc3cc(C)ccc3C)CC2)cn1C	1.06
Br.N=C1c2ccccc2CN1NC(=O)COc1ccc(Cl)cc1	-2.04
O=C(Nc1ccc(Br)cn1)c1cccc2ccccc12	14.1
COc1cc(C(=O)NC(CCSC)C(=O)OCC(=O)C(C)(C)C)cc(OC)c1OC (centres unmarked)	16.7
Cc1ccc(-n2[nH]c(C)c(C=NC34CN5CN(CN(C5)C3)C4)c2=O)cc1C	9.68
CCSc1nnc(NC(=O)c2ccccn2)s1	4.02
COc1ccc(S(=O)(=O)N2CCSC2c2ccc(OC)c(OC)c2)cc1 (centres unmarked)	7
CC(=O)N1CCN(c2ccc(Nc3nc(C)nc4c3oc3ccccc34)cc2)CC1.Cl	-20.2
O=c1c(F)cn(C2CCCO2)c(=O)n1Cc1ccccc1Cl (centres unmarked)	14.9
CC1CCc2c(sc3nc(CN4CCOCC4)nc(Sc4ccccc4)c23)C1 (centres unmarked)	14.8
COc1nccc(C(F)(F)F)c1C(=O)NC(=O)Nc1ccccc1	-1.81
CCCn1c2ccccc2c2cnn(CC(=O)N3CCOCC3)c(=O)c21	7.27
O=C(Nc1ccc2c(c1)S(=O)(=O)N=C1CCCCCN12)c1ccccc1Cl	0.457
O=C(CN1C(=O)CSc2ccccc21)NC1CCCC1	0.689
CC(C)(C)n1cnc(C(N)=O)c1N	-1.88
CCOC(=O)Cn1nc(C)n(-c2ccc(C)cc2)c1=O	1.14
COc1ccc(CCN2C(=O)C(Oc3ccccc3)C2c2ccc3c(c2)OCO3)cc1 (centres unmarked)	9.31
O=C(CS(=O)(=O)c1c[nH]c2ccccc12)N1CCc2ccccc21	-1.88
O=C(Nc1cc(Cl)ccc1Cl)c1noc2c1CCCC2	14

SMILES	hERG current change (%, negative = inhibition) at 1uM [%]
COc1ccc2[nH]cc(C(O)CN3CCC(C(N)=O)CC3)c2c1 (centres unmarked)	11.1
CC(=O)c1ccc(NC(=O)C2=CC(c3cccs3)=NS(=O)(=O)N2C)cc1	14.6
CC(C)CC(=O)/C=C/n1c(=S)oc2ccccc21	12.9
Cc1ccnn1CC(=O)N/N=C/c1ccc2c(c1)OCO2	-9.14
NC(=O)CCCc1nc(-c2ccccc2)no1	5.77
COc1ccccc1NC(=O)CN(c1ccccc1C)S(C)(=O)=O	11.9
Cc1ccc(-c2nnc(SCC(=O)N3CCOCC3)nc2-c2ccc(C)cc2)cc1	11.6
CC1(C)CC(=O)C2=C(C1)OC(N)=C(C#N)C2c1ccsc1 (centres unmarked)	2.57
COc1ccc(-c2csc(NC(=O)c3c(C)noc3C)n2)cc1	5.78
CC1CCc2c(sc(N)c2C(N)=O)C1 (centres unmarked)	1.53
Cc1cc(C)c2cc(C(=O)N3CCN(c4ncccc4C(F)(F)F)CC3)[nH]c2c1	7.95
CCOC(=O)CSc1nnnn1-c1cccc2ccccc12	20.3
COC(=O)C(C)(C)ONC(=O)Nc1ccc([N+](=O)[O-])cc1	-0.0253
Cc1ccc(-c2noc(-c3ccccc3Br)n2)cc1	8.89
O=C(O)CSc1ccc2ccccc2n1	11.9
COc1ccc(OCC(=O)OC(C)CN2CCCCC2)cc1 (centres unmarked)	12.1
COc1ccc(S(=O)(=O)N2CCC(C(=O)NC3CC3)CC2)cc1Cl	9.14
COc1ccc(C2Nc3ccccc3C(=O)N2NS(=O)(=O)c2ccc(C)cc2)c(OC)c1 (centres unmarked)	10.8
O=C(c1cccc(S(=O)(=O)N2CCCCC2)c1)N1CCc2ccccc21	5.5
